Reference: the supplement of paper PMC8728848
Some of the results follow.

Key:
Experiment in all cases: glycan array binding signal (z-score within array); higher = stronger binding
Conditions in all cases: glycan notation: IUPAC condensed, linker removed
[1] = molecular target: Glc(b1-4)Glc(b1-4)Glc(b1-4)Glc(b1-4)Glc
Procedure, shortened: (§1)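 The Consortium for Functional Glycomics database supplied 3228 glycan arrays, of which those lacking an available protein sequence were dropped. The binding signal, a within-array Z-score, was averaged across arrays of the same protein sequence and across linkers. Negative scores can be read as non-binding.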

[2] = molecular target: Glc(b1-4)Glc(b1-4)Glc(b1-4)Glc(b1-4)Glc(b1-4)Glc
Procedure, shortened: as §1

[3] = molecular target: Glc(b1-4)Glc(b1-4)Glc(b1-4)Glc(b1-4)Glc(b1-4)Glc(b1-4)Glc
Procedure, shortened: as §1

[4] = molecular target: Glc(b1-4)Glc(b1-4)Glc(b1-4)Glc(b1-4)Glc(b1-4)Glc(b1-4)Glc(b1-4)Glc
Procedure, shortened: as §1

[5] = molecular target: Glc(b1-4)Glc(b1-4)Glc(b1-4)Glc(b1-4)Glc(b1-4)Glc(b1-4)Glc(b1-4)Glc(b1-4)Glc
Procedure, shortened: as §1

[6] = molecular target: Glc(b1-4)Glc(b1-4)Glc(b1-4)Glc(b1-4)Glc(b1-4)Glc(b1-4)Glc(b1-4)Glc(b1-4)Glc(b1-4)Glc
Procedure, shortened: as §1

[7] = molecular target: Glc(b1-4)Glc(b1-4)Glc(b1-4)Glc(b1-4)Glc(b1-4)Glc(b1-4)Glc(b1-4)Glc(b1-4)Glc(b1-4)Glc(b1-4)Glc
Procedure, shortened: as §1

[8] = molecular target: Glc(b1-4)Glc(b1-4)Glc(b1-4)Glc(b1-4)Glc(b1-4)Glc(b1-4)Glc(b1-4)Glc(b1-4)Glc(b1-4)Glc(b1-4)Glc(b1-4)Glc
Procedure, shortened: as §1

[9] = molecular target: Glc(b1-4)Glc(b1-4)Glc(b1-4)Glc(b1-4)Glc(b1-4)Glc(b1-4)Glc(b1-4)Glc(b1-4)Glc(b1-4)Glc(b1-4)Glc(b1-4)Glc(b1-4)Glc
Procedure, shortened: as §1

[10] = molecular target: Glc(b1-6)Glc
Procedure, shortened: as §1

[11] = molecular target: Glc(b1-6)Glc(b1-6)Glc
Procedure, shortened: as §1

[12] = molecular target: Glc(b1-6)Glc(b1-6)Glc(b1-6)Glc
Procedure, shortened: as §1

[13] = molecular target: Glc(b1-6)Glc(b1-6)Glc(b1-6)Glc(b1-6)Glc
Procedure, shortened: as §1

[14] = molecular target: Glc(b1-6)Glc(b1-6)Glc(b1-6)Glc(b1-6)Glc(b1-6)Glc
Procedure, shortened: as §1

[15] = molecular target: Glc(b1-6)Glc(b1-6)Glc(b1-6)Glc(b1-6)Glc(b1-6)Glc(b1-6)Glc
Procedure, shortened: as §1

[16] = molecular target: Glc(b1-6)Glc(b1-6)Glc(b1-6)Glc(b1-6)Glc(b1-6)Glc(b1-6)Glc(b1-6)Glc
Procedure, shortened: as §1

[17] = molecular target: Glc(b1-6)Glc(b1-6)Glc(b1-6)Glc(b1-6)Glc(b1-6)Glc(b1-6)Glc(b1-6)Glc(b1-6)Glc
Procedure, shortened: as §1

[18] = molecular target: Glc(b1-6)Glc(b1-6)Glc(b1-6)Glc(b1-6)Glc(b1-6)Glc(b1-6)Glc(b1-6)Glc(b1-6)Glc(b1-6)Glc
Procedure, shortened: as §1

[19] = molecular target: Glc(b1-6)Glc(b1-6)Glc(b1-6)Glc(b1-6)Glc(b1-6)Glc(b1-6)Glc(b1-6)Glc(b1-6)Glc(b1-6)Glc(b1-6)Glc
Procedure, shortened: as §1

[20] = molecular target: Glc(b1-6)Glc(b1-6)Glc(b1-6)Glc(b1-6)Glc(b1-6)Glc(b1-6)Glc(b1-6)Glc(b1-6)Glc(b1-6)Glc(b1-6)Glc(b1-6)Glc
Procedure, shortened: as §1

[21] = molecular target: Glc(b1-6)Glc(b1-6)Glc(b1-6)Glc(b1-6)Glc(b1-6)Glc(b1-6)Glc(b1-6)Glc(b1-6)Glc(b1-6)Glc(b1-6)Glc(b1-6)Glc(b1-6)Glc
Procedure, shortened: as §1

[22] = molecular target: Man(b1-4)Man(b1-4)Man(b1-4)Man
Procedure, shortened: as §1

[23] = molecular target: Man(b1-4)Man(b1-4)Man(b1-4)Man(b1-4)Man
Procedure, shortened: as §1

[24] = molecular target: Man(b1-4)Man(b1-4)Man(b1-4)Man(b1-4)Man(b1-4)Man
Procedure, shortened: as §1

[25] = molecular target: Xyl(b1-4)Xyl(b1-4)Xyl(b1-4)Xyl(b1-4)Xyl
Procedure, shortened: as §1

[26] = molecular target: Xyl(b1-4)Xyl(b1-4)Xyl(b1-4)Xyl(b1-4)Xyl(b1-4)Xyl
Procedure, shortened: as §1

[27] = molecular target: Glc(a1-2)Glc
Procedure, shortened: as §1

[28] = molecular target: Glc(a1-2)Glc(a1-2)Glc
Procedure, shortened: as §1

[29] = molecular target: Glc(a1-2)Glc(a1-2)Glc(a1-2)Glc
Procedure, shortened: as §1

[30] = molecular target: Glc(a1-2)Glc(a1-2)Glc(a1-2)Glc(a1-2)Glc
Procedure, shortened: as §1

[31] = molecular target: Glc(a1-2)Glc(a1-2)Glc(a1-2)Glc(a1-2)Glc(a1-2)Glc
Procedure, shortened: as §1

[32] = molecular target: Glc(a1-2)Glc(a1-2)Glc(a1-2)Glc(a1-2)Glc(a1-2)Glc(a1-2)Glc
Procedure, shortened: as §1

[33] = molecular target: Glc(a1-2)Glc(a1-2)Glc(a1-2)Glc(a1-2)Glc(a1-2)Glc(a1-2)Glc(a1-2)Glc
Procedure, shortened: as §1

[34] = molecular target: Glc(a1-2)Glc(a1-2)Glc(a1-2)Glc(a1-2)Glc(a1-2)Glc(a1-2)Glc(a1-2)Glc(a1-2)Glc
Procedure, shortened: as §1

[35] = molecular target: Glc(b1-2)Glc
Procedure, shortened: as §1

[36] = molecular target: Glc(b1-2)Glc(b1-2)Glc
Procedure, shortened: as §1

[37] = molecular target: Glc(b1-2)Glc(b1-2)Glc(b1-2)Glc
Procedure, shortened: as §1

[38] = molecular target: Glc(b1-2)Glc(b1-2)Glc(b1-2)Glc(b1-2)Glc
Procedure, shortened: as §1

[39] = molecular target: Glc(b1-2)Glc(b1-2)Glc(b1-2)Glc(b1-2)Glc(b1-2)Glc
Procedure, shortened: as §1

[40] = molecular target: Glc(b1-2)Glc(b1-2)Glc(b1-2)Glc(b1-2)Glc(b1-2)Glc(b1-2)Glc
Procedure, shortened: as §1

[41] = molecular target: Glc(b1-2)Glc(b1-2)Glc(b1-2)Glc(b1-2)Glc(b1-2)Glc(b1-2)Glc(b1-2)Glc
Procedure, shortened: as §1

[42] = molecular target: Glc(b1-2)Glc(b1-2)Glc(b1-2)Glc(b1-2)Glc(b1-2)Glc(b1-2)Glc(b1-2)Glc(b1-2)Glc
Procedure, shortened: as §1

[43] = molecular target: Glc(b1-2)Glc(b1-2)Glc(b1-2)Glc(b1-2)Glc(b1-2)Glc(b1-2)Glc(b1-2)Glc(b1-2)Glc(b1-2)Glc
Procedure, shortened: as §1

[44] = molecular target: Glc(b1-2)Glc(b1-2)Glc(b1-2)Glc(b1-2)Glc(b1-2)Glc(b1-2)Glc(b1-2)Glc(b1-2)Glc(b1-2)Glc(b1-2)Glc
Procedure, shortened: as §1

[45] = molecular target: Glc(b1-2)Glc(b1-2)Glc(b1-2)Glc(b1-2)Glc(b1-2)Glc(b1-2)Glc(b1-2)Glc(b1-2)Glc(b1-2)Glc(b1-2)Glc(b1-2)Glc
Procedure, shortened: as §1

[46] = molecular target: Glc(b1-3)Glc(b1-3)Glc(b1-3)Glc(b1-3)Glc(b1-3)Glc(b1-3)Glc(b1-3)Glc(b1-3)Glc(b1-3)Glc(b1-3)Glc(b1-3)Glc(b1-3)Glc
Procedure, shortened: as §1

B1: Dectin-1 (Homo sapiens), Q9BXN2 (protein)
chain: TMAIWRSNSGSNTLENGYFLSRNKENHSQPTQSSLEDSVTPTKAVKTTGVLSSPCPPNWIIYEKSCYLFSMSLNSWDGSKRQCWQLGSNLLKIDSSNELGFIVKQVSSQPDNSFWIGLSRPQTEVPWLWEDGSTFSSNLFQIRTTATQENPSPNCVWIHVSVIYDQLCSVPSYSICEKKFSM
[1]
  glycan array binding signal (z-score): -0.145
[2]
  glycan array binding signal (z-score): -0.145
[3]
  glycan array binding signal (z-score): -0.145
[4]
  glycan array binding signal (z-score): -0.145
[5]
  glycan array binding signal (z-score): -0.145
[6]
  glycan array binding signal (z-score): -0.145
[7]
  glycan array binding signal (z-score): -0.145
[8]
  glycan array binding signal (z-score): -0.145
[9]
  glycan array binding signal (z-score): -0.094
[10]
  glycan array binding signal (z-score): -0.11
[11]
  glycan array binding signal (z-score): -0.145
[12]
  glycan array binding signal (z-score): -0.145
[13]
  glycan array binding signal (z-score): -0.145
[14]
  glycan array binding signal (z-score): -0.145
[15]
  glycan array binding signal (z-score): -0.145
[16]
  glycan array binding signal (z-score): -0.145
[17]
  glycan array binding signal (z-score): -0.145
[18]
  glycan array binding signal (z-score): -0.145
[19]
  glycan array binding signal (z-score): -0.145
[20]
  glycan array binding signal (z-score): -0.145
[21]
  glycan array binding signal (z-score): -0.145
[22]
  glycan array binding signal (z-score): -0.082
[23]
  glycan array binding signal (z-score): -0.121
[24]
  glycan array binding signal (z-score): -0.136
[25]
  glycan array binding signal (z-score): -0.12
[26]
  glycan array binding signal (z-score): -0.145

B2: DC-SIGN (Homo sapiens), Q9NNX6 (protein)
chain: QVSKVPSSISQEQSRQDAIYQNLTQLKAAVGELSEKSKLQEIYQELTQLKAAVGELPEKSKLQEIYQELTRLKAAVGELPEKSKLQEIYQELTWLKAAVGELPEKSKMQEIYQELTRLKAAVGELPEKSKQQEIYQELTRLKAAVGELPEKSKQQEIYQELTRLKAAVGELPEKSKQQEIYQELTQLKAAVERLCHPCPWEWTFFQGNCYFMSNSQRNWHDSITACKEVGAQLVVIKSAEEQNFLQLQSSRSNRFTWMGLSDLNQEGTWQWVDGSPLLPSFKQYWNRGEPNNVGEEDCAEFSGNGWNDDKCNLAKFWICKKSAASCSRDEEQFLSPAPATPNPPPA
[27]
  glycan array binding signal (z-score): -1.08
[28]
  glycan array binding signal (z-score): -1.23
[29]
  glycan array binding signal (z-score): -0.993
[30]
  glycan array binding signal (z-score): -0.838
[31]
  glycan array binding signal (z-score): -1.03
[32]
  glycan array binding signal (z-score): -0.81
[33]
  glycan array binding signal (z-score): -0.586
[34]
  glycan array binding signal (z-score): -0.6
[35]
  glycan array binding signal (z-score): 0.173
[36]
  glycan array binding signal (z-score): 0.114
[37]
  glycan array binding signal (z-score): 0.562
[38]
  glycan array binding signal (z-score): 1.1
[39]
  glycan array binding signal (z-score): 2.48
[40]
  glycan array binding signal (z-score): 1.09
[41]
  glycan array binding signal (z-score): 0.65
[42]
  glycan array binding signal (z-score): 1.4
[43]
  glycan array binding signal (z-score): 0.355
[44]
  glycan array binding signal (z-score): 0.388
[45]
  glycan array binding signal (z-score): 0.149
[46]
  glycan array binding signal (z-score): -1.29

B3: DC-SIGNR (Homo sapiens), Q9H2X3 (protein)
chain: QVSKVPSSLSQEQSEQDAIYQNLTQLKAAVGELSEKSKLQEIYQELTQLKAAVGELPEKSKLQEIYQELTRLKAAVGELPEKSKLQEIYQELTRLKAAVGELPEKSKLQEIYQELTRLKAAVGELPEKSKLQEIYQELTELKAAVGELPEKSKLQEIYQELTQLKAAVGELPDQSKQQQIYQELTDLKTAFERLCRHCPKDWTFFQGNCYFMSNSQRNWHDSVTACQEVRAQLVVIKTAEEQNFLQLQTSRSNRFSWMGLSDLNQEGTWQWVDGSPLSPSFQRYWNSGEPNNSGNEDCAEFSGSGWNDNRCDVDNYWICKKPAACFRDE
[27]
  glycan array binding signal (z-score): -1.03
[28]
  glycan array binding signal (z-score): -1.03
[29]
  glycan array binding signal (z-score): -1.03
[30]
  glycan array binding signal (z-score): -1.03
[31]
  glycan array binding signal (z-score): -0.675
[32]
  glycan array binding signal (z-score): -0.195
[33]
  glycan array binding signal (z-score): -0.127
[34]
  glycan array binding signal (z-score): 0.43
[35]
  glycan array binding signal (z-score): -1.03
[36]
  glycan array binding signal (z-score): -1.03
[37]
  glycan array binding signal (z-score): -0.961
[38]
  glycan array binding signal (z-score): 0.29
[39]
  glycan array binding signal (z-score): 1.24
[40]
  glycan array binding signal (z-score): 0.862
[41]
  glycan array binding signal (z-score): 0.872
[42]
  glycan array binding signal (z-score): 1.64
[43]
  glycan array binding signal (z-score): 0.741
[44]
  glycan array binding signal (z-score): 1.57
[45]
  glycan array binding signal (z-score): 1.48
[46]
  glycan array binding signal (z-score): -0.981
